Source: PubChem BioAssay AID894 (National Center for Advancing Translational Sciences (NCATS), 2007)
Values joined by “and” are separate entries in the source; they are usually repeats but may differ in a detail not shown here. Equal entries are not always repeated. Among all 150,000 compounds or so, about 6,500 (4.3%) were called active. This list was built around the results that the source calls inconclusive (neither active nor inactive); the mix of calls is not that of the screen. Calls follow the shape of the dose curve; as a rule, active = well fitted inhibition curve with a large enough effect (not every such curve was filed as active); inconclusive = small, poorly fitted or top-dose-only effect, or another doubt; inactive = no such curve, though single readings can be large or run the other way. A potency beside an inconclusive call is a rough fit, not a confirmed value.

Each molecule was assayed against 15-hydroxyprostaglandin dehydrogenase [NAD(+)] (Homo sapiens) (UniProt P15428) (assay: qHTS Assay for Inhibitors of HPGD (15-Hydroxyprostaglandin Dehydrogenase)). Settings: purified HPGD, NADH fluorescence kinetic, PGE2 substrate; activity change, negative = inhibition: hits give low values.
Chain of UniProt P15428 (P15428 whole entry, looked up): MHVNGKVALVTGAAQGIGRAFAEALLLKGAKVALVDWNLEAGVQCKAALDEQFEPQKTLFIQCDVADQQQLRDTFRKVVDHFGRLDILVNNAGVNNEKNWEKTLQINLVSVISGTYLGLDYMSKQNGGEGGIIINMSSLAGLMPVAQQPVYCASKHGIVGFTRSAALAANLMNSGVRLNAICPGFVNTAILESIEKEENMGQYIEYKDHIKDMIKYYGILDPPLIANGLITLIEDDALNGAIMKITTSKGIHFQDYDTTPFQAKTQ
Method in brief: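 20 nM HPGD preincubated 15 min at room temperature with compound in 50 mM Tris-HCl pH 8, 0.01% Tween 20. Started with 1 mM NAD+ and 30 uM prostaglandin E2; NADH fluorescence (360/450 nm) read 5 times over 30-s intervals, last minus first.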
% is scaled to controls: 0 for no effect and ±100 for the full control effect; potency is read from the fitted curve at half-maximal effect; tags tell the direction and shape of the fitted curve.

Potency, inconclusive:
Cc1cccc(C=Nc2ccc3c4c(cccc24)CC3)c1O 31.6 µM [inhibitor, partial curve]
COc1cc2nc(=S)n3[nH]c(CCn4nc(C)cc4C)nc3c2cc1OC 22.4 µM [inhibitor, single point]
Cc1ccc(-c2c3c(nc4sc(C(N)=O)c(N)c24)CCCC3)o1 25.1 µM [inhibitor, single point]
Clc1ccc(-n2ncc3c(NCC4CCCO4)ncnc32)cc1 (centres undefined) 8.91 µM [inhibitor, partial curve]
O=C(Nc1cnn(Cc2ccccc2)c1)c1cc2nc(-c3ccco3)cc(C(F)(F)F)n2n1 28.2 µM [inhibitor, single point]
COc1ccc(C(C)=O)cc1COc1ccc(-n2cnnn2)cc1 8.91 µM [inhibitor, full curve, poor fit]
CCCn1c(-c2ccc(F)cc2)nc2c(NCCCN(CCO)CCO)nc(C)nc21 25.1 µM [inhibitor, partial curve]
NS(=O)(=O)c1ccc(CCNc2nc3c(-c4cccc(F)c4)nnn3c3ccccc23)cc1 28.2 µM [inhibitor, partial curve]
CCOc1ccc2[nH]c(C)c(CN(C)C)c(=O)c2c1 28.2 µM [inhibitor, partial curve]
O=S(=O)(c1cccc(S(=O)(=O)N2CCC(N3CCCCC3)CC2)c1)N1CCOCC1 39.8 µM [inhibitor, single point]
O=C(NC1CCCCC1)N(CCN1CCOCC1)Cc1cc2cc3c(cc2[nH]c1=O)OCCO3 15.8 µM [inhibitor, partial curve]
Cc1cccc(C)c1N(CC(O)Cn1c2ccccc2c2ccccc21)S(C)(=O)=O (centres undefined) 39.8 µM [inhibitor, single point]
Cc1cc(C)c2c(=O)n(CC(=O)NCCCN3CCOCC3)sc2n1 10 µM [inhibitor, partial curve]
O=C1CC(c2cccc(Cl)c2)Cc2nc(N3CCN(c4ccccc4)CC3)ncc21 (centres undefined) 28.2 µM [inhibitor, single point]
NC(=NCc1ccccc1)NC(=O)c1nc(Cl)c(N)nc1N 15.8 µM [inhibitor, partial curve, poor fit] and 31.6 µM [inhibitor, partial curve] and 31.6 µM [inhibitor, partial curve, poor fit]
Cn1c(=O)[nH]c(=O)c2c1nc(N1CCCCCC1)n2CCCSc1nc2ccccc2o1 31.6 µM [inhibitor, single point]
CC1(CC(=O)N/N=C/c2ccc(-c3ccc(C(=O)O)cc3)o2)OCCO1 28.2 µM [inhibitor, partial curve]
O=C(Nc1nncs1)C1COc2ccccc2O1 (centres undefined) 7.08 µM [inhibitor, single point]
Cc1ccccc1N(C)S(=O)(=O)c1ccc2[nH]cc(C(=O)NCC3CCCO3)c(=O)c2c1 (centres undefined) 28.2 µM [inhibitor, partial curve]
COc1ccc(-c2nnc3ccc(SCC(=O)Nc4nccs4)nn23)cc1OC 28.2 µM [inhibitor, single point]
c1cc2c(cnc3cscc32)s1 31.6 µM [inhibitor, single point]

Potency, active:
COc1ccc(OC)c(N(CC(=O)Nc2cccnc2)S(=O)(=O)c2ccc(OC)c(OC)c2)c1 15.8 µM
COc1ccc(NC(=O)C2CC(=O)n3cnnc3S2)cc1 (centres undefined) 17.8 µM
CC(C)NC(=O)c1onc(CSc2ccc(C(C)C)cc2)c1C(=O)O 22.4 µM
Cc1sc(NC(=O)c2sc3nc4c(C)cccc4cc3c2N)c(C#N)c1C 7.08 µM
CC(C)Cn1c(Br)nc2c1c(=O)n(CCC#N)c(=O)n2C 17.8 µM
O=C(Nc1nnc(SCC(=O)N2CCCCC2)s1)C1CCCCC1 14.1 µM
CCC(Sc1ccc2nnc(-c3ccc(OC)c(OC)c3)n2n1)C(=O)O (centres undefined) 14.1 µM
Cc1ccc(-c2ccc(/C=N/N3C(=O)C4C5C=CC(CC5)C4C3=O)o2)c([N+](=O)[O-])c1 (centres undefined) 15.8 µM
O=C(Cn1cnc2c(nnn2Cc2ccc(Cl)cc2)c1=O)OCc1ccccc1 12.6 µM
Cc1ccc(/C=N/NC(=O)CSc2nc3ccccc3s2)o1 14.1 µM
N#CC(C#N)=C1C=CC=CN1/C(=C\c1ccco1)C(=O)c1ccc(Br)cc1 15.8 µM

Activity change, negative = inhibition, inactive:
CCOC(=O)N1CCC(NC(=O)C2CCCN(c3nc4ccccc4o3)C2)CC1 (centres undefined) 2.56%
O=C(Cn1cnc2c(nnn2Cc2ccccc2)c1=O)c1ccc(Cl)cc1 -17.5%
Cc1c(C)[n+](=O)c2c(n1[O-])CCC2 -3.92%
COc1ccc(N2C(=O)CC(n3cnc4ccccc43)C2=O)cc1 (centres undefined) -9.18%
O=C(COC(=O)COc1ccc(Br)cc1)NCCC1=CCCCC1 -12.2%
COc1cccc(NC(=S)/C(=C(\[O-])c2ccc(C)c([N+](=O)[O-])c2)[n+]2ccccc2)c1 -15.6%
Cc1cc(C(=O)CN2C(=O)NC3(CCCc4sccc43)C2=O)c(C)n1-c1ccccc1 (centres undefined) -12.3%
O=C(Nc1nc2c(ccc3ccccc32)s1)c1ccco1 -22.1%
O=C(CSc1nc(-c2ccccc2F)nc2nc[nH]c12)Nc1c(Cl)cc(Cl)cc1Cl -14.7%
O=C(c1cnccn1)N1CCC2(CC1)CCN(c1ncccn1)CC2 -13.4%
COc1ccc(C(=O)NCCc2nnc(SCC(=O)Nc3ccc(Br)cc3)n2C)cc1 -13.1%
Cc1ccc(S(=O)(=O)N2CCCN(S(=O)(=O)c3ccc(C)c(C)c3)CC2)cc1C -1.48%
